From the supplement of paper PMC3334620
The full ranking holds about 33,000 sequences; the median of “E-score (-0.5 to 0.5)” is about -0.053, and the highest 2% start at about 0.37. The list shows a part of the results.

Each sequence was assayed against Hap1 (UniProt P0CE41) (assay: PBM E-score (8-mer binding enrichment) (E-score (-0.5 to 0.5)); higher = stronger / more preferred TF binding; most listed sequences are background and not binding sites). Conditions: protein concentration: 200 nM; construct: GST-DNA-binding domain.
Sequence of UniProt P0CE41 (P0CE41 whole entry, the tested form may be a part): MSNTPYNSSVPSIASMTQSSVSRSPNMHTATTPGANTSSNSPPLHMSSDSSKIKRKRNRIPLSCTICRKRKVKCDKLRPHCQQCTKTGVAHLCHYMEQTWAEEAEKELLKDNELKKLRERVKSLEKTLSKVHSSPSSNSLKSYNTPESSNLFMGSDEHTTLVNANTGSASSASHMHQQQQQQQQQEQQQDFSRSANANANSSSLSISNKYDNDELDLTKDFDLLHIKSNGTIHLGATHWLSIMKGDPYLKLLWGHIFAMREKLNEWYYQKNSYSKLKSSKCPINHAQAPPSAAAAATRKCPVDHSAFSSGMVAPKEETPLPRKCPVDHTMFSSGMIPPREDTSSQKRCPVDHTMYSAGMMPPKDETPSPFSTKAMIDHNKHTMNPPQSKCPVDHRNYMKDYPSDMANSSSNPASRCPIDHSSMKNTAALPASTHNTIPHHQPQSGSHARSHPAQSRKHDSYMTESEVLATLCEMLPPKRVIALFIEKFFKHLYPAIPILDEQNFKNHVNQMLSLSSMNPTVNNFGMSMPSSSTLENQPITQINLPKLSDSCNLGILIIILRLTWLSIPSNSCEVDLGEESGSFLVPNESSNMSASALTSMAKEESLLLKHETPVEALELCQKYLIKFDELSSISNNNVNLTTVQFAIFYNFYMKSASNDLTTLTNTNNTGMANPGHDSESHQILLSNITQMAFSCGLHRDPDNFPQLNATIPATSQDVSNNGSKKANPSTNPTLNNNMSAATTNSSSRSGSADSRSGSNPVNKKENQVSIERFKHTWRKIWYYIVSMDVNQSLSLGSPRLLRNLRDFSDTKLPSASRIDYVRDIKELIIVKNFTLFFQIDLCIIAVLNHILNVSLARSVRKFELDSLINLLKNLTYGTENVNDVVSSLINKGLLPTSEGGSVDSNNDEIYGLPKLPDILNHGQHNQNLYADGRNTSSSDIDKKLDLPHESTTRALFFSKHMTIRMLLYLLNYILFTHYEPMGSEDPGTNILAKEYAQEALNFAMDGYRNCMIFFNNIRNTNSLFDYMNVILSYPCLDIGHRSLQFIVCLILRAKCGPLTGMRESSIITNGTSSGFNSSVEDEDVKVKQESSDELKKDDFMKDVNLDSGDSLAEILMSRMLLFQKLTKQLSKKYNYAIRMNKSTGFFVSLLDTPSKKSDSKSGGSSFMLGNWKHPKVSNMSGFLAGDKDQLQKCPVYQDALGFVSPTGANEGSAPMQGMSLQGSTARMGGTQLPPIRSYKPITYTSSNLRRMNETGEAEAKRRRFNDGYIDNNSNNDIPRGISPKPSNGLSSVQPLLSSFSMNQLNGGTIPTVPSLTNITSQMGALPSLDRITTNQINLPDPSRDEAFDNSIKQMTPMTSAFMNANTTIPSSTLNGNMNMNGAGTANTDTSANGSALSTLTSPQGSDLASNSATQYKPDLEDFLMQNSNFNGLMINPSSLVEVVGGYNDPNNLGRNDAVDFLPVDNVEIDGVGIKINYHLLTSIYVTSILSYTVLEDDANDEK
In short: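 Masliner-normalised scans of fluorescent anti-GST signal were the basis for scoring. That signal came from GST-tagged yeast transcription factors applied at about 100-200 nM to double-stranded universal all-10-mer Agilent arrays on fresh or once-stripped slides. Each ungapped eight-base word, pooled with its reverse complement, received an E-score from the Universal PBM Analysis Suite.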

Sequence	PBM E-score
ATCATTTC	0.0792
ATACAACG	0.102
AGTACAAG	-0.0771
AACACCAA	-0.314
GATTGCCC	0.0173
CGTTTGTC	-0.0136
CTAACCAC	-0.141
ACTGCTTC	0.00237
AGGACTAG	-0.127
GATGCACC	0.0309
CGGGGGCC	0.246
CACTCTGC	-0.139
AGACTGAT	-0.159
GGTCGGTA	0.166
CGTCAAGC	-0.0445
GTCCGTGA	0.303
AATGTTCA	-0.0359
CAAGAAGG	-0.281
GTGGACCA	-0.0994
CGTCGCGA	0.108
AACATGAC	-0.182
ACCTGGCT	-0.152
GAGTACGA	0.0941
GCCATGGA	-0.175
TCGGCTCA	0.184

Sequence	PBM E-score
GCAGTATA	0.196
AGTCCATC	-0.027
TATCGGAA	0.409
GTCGCTTA	0.197
GTGCCCTA	-0.202
AATCCCAG	0.0195
CTAGCGAC	-0.051
ATTTTATG	0.0797
CTACGTGC	-0.232
CCAGTACG	-0.222
GCAGAAGA	-0.17
AGACATAA	-0.0377
CCGTATAG	-0.0396
GTCTTTAA	-0.163
ACATAGCA	-0.201
CTATTTAA	0.117
ACTGCTCG	0.166
TAGGAATA	-0.172
ATCGCGGG	0.161
AGTCTGAG	-0.287
AGTTAAGG	-0.0377
GCGGGGAA	0.167
CTGCCAAG	-0.328
AGAAAAAG	-0.0187
CCTTCCCG	-0.0195

Sequence	PBM E-score
GAAGGCCC	0.0538
AGTCAGGA	-0.0121
AGGGAAGC	-0.0509
TCGAGAAA	-0.271
CCGAATGC	0.34
TCCTAGCA	-0.232
TTCAAGAA	0.00694
GGTTGTAA	-0.0507
CGGGCCGA	0.379
TCACCCGA	0.339
AGAGCAAT	-0.106
AAGAGCGG	0.088
CACCTTTC	-0.14
GACATTGC	0.0215
ATATTTAA	-0.105
ATGGTCCC	-0.131
CGGTACTC	0.0806
GCATAAAC	-0.0213
CACTAAGA	-0.047
CGGGCCAA	0.305
ATCCTGTC	0.0425
ATAGCTCA	-0.0918
AACATAGT	0.0275
AGCTGATA	-0.181
AAAAAGAC	-0.156

Sequence	PBM E-score
TCAGACGA	-0.201
CTAAGTAC	-0.0359
CACATCAC	-0.0631
AAGAGGAC	-0.23
CGGTGTCC	0.271
ACTTTTTA	-0.0787
AAGATAAC	0.0537
TGCCCTAA	-0.142
ACGTAGCT	-0.241
GCAGCGCC	0.0452
ATCGTAAA	-0.127
GGCGTGTA	-0.0887
CTGGGTGA	-0.109
GCAACGCA	-0.0158
CGGTAAAC	0.231
AAGGTGGA	0.0544
AATGGCGC	0.0448
ATCCTGAA	-0.0643
AGACATCG	-0.0272
CGATTACA	-0.0481
ATGCCAAA	-0.313
CACAGCAA	-0.0196
ACTGCTAT	-0.0795
CGACGTAA	-0.00721
CGACTCAA	0.077

Sequence	PBM E-score
GTCCCCGA	0.269
ACCGGTAT	0.424
GCGCAAGC	-0.249
ACGCTTAA	-0.206
ACACCAGC	-0.188
TAGACTCA	-0.0382
ACTCGGTC	0.301
TACCATCA	-0.403
CGCTTTGA	0.0268
AGGGGACC	-0.133
ATAATAAA	0.128
AACTCGCG	0.0253
CTAATACC	0.246
GCCTACTA	-0.141
ATTAGTTG	-0.0774
ACTAGTCC	0.13
GGGTAAGA	-0.019
AAAAACCT	-0.0122
CTGCCCGA	0.202
AGTATTAG	0.0646
CGGTGACC	0.0217
AGCAACCA	-0.0386
AAATCGGC	0.303
GAACATTA	0.0953
ATTGCCTG	-0.0963

Sequence	PBM E-score
AGGGCCTG	-0.316
CCATCACA	-0.19
CACGGATG	0.179
AACTGATG	-0.187
AAAGGGTA	-0.0562
AAGCGCCC	0.209
CGAGTCTA	-0.0832
TCAAATCA	-0.313
CAAGGGGA	-0.0784
CCGAGAGA	0.309
CGGACAGC	0.268
ACGCGCGA	0.184
AACTCATA	-0.0429
AGTTATAT	0.149
GTACGAAA	-0.161
ACTCTAGG	-0.2
GAACTATA	0.0768
ACTCACCT	-0.328
AAAGAGCA	-0.118
GTTGCTCA	-0.185
GAGTTTCC	0.0827
AGCGCCAA	-0.251
CGGGACAG	0.221
GTTACCAA	-0.0436
ACAGAGTC	-0.167

Sequence	PBM E-score
GTGCCAGA	-0.198
CGGTATAC	0.212
GGTATGCA	-0.166
GGCTCGAC	-0.105
GCCTCACC	-0.129
AGTGTAAA	-0.14
TATCTCGA	-0.0692
CAGTATGC	-0.125
CGCTTGGA	-0.0692
AAGGTTGC	-0.101
ATCGATGG	-0.145
AGAGGCCT	-0.258
AAATCTAA	-0.22
AGTTTTGA	-0.00825
ACTCTAAT	-0.132
GATCCTCC	-0.0188
GCAGCAAA	-0.179
ACTCCAAC	-0.0402
CGGGGGGC	0.0983
GGGCCCAA	0.0258
CACGTGTC	-0.228
GGGATTGA	-0.123
